The text below walks through data of PubChem BioAssay AID1645887 (National Center for Advancing Translational Sciences (NCATS), 2021).

Where “and” joins values, the source holds several entries; their conditions need not be identical. Equal values may be shown once. Out of some 16,000 compounds screened, about 40 (0.2%) were called active. About 1% were inconclusive and are not listed. The call rests on the fitted dose curve; in most records, active means well fitted activation curve with a large enough effect; inconclusive means small, poorly fitted or top-dose-only effect, or another doubt; inactive means no such curve, though single readings can be large or run the other way. The list shows a part of the results.
On the % scale 0 is the no-effect control and ±100 the full control effect.

In this experiment the target is Rap guanine nucleotide exchange factor 4 (Homo sapiens) (UniProt Q8WZA2). Kind of experiment: Validation qHTS for agonist of cAMP-regulated guanine nucleotide exchange factor 4 (EPAC2).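 Further: exchange makes BODIPY-GDP fluorescence drop when released from Rap1B; series mostly up to about 150 µM.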 The settings on record: EPAC2 Rap1B BODIPY-GDP exchange, fluorescence; activation: active compounds read high. An outline of the steps: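 Fluorescent exchange assay: 100 nM EPAC2 with 250 nM RAP1B-BODIPY-GDP and 50 uM GDP; compound added, 5 min at room temperature, then read (ex 480/em 540 nm) every 5 min for 30 min. Normalized to 6.5 mM cAMP agonist control.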
Sequence of UniProt Q8WZA2 (Q8WZA2 whole entry, looked up): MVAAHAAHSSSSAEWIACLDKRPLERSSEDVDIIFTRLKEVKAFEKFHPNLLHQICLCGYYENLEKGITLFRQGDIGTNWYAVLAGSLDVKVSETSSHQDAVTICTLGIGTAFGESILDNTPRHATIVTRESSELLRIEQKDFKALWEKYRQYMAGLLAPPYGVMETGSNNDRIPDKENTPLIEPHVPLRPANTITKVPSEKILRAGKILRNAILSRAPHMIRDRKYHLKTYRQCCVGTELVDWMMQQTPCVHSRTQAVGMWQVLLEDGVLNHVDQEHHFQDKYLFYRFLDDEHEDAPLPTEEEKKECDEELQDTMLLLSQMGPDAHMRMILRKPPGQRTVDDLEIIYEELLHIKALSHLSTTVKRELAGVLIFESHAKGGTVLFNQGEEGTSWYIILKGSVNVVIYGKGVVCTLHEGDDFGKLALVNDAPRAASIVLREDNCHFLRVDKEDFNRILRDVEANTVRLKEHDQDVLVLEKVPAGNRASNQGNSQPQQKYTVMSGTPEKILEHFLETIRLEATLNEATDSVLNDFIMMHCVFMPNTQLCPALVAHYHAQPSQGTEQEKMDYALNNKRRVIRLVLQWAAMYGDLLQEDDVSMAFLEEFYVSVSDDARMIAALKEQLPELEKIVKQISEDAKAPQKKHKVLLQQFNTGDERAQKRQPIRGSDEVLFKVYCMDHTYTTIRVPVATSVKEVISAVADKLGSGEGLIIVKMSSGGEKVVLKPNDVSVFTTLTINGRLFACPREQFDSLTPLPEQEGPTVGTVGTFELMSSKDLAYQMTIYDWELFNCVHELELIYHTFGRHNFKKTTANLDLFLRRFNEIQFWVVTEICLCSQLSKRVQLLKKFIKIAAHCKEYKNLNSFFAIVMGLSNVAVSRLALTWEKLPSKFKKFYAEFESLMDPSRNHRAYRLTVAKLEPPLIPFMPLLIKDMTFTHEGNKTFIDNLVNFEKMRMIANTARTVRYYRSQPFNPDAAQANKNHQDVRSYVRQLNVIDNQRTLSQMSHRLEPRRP
(Quantitative high-throughput screening tests each substance at several concentrations.)
Regarding `COC(=O)N1CCC2(CC1)CN(c1cccc(-c3ccccc3)c1)C2`, the activation was inactive: -4.21%.
On to `CN1CCN(c2c(F)cc3c(=O)c(C(=O)O)cn4c3c2OCN4C)CC1`, for which the activation was inactive: -1.3%.
For `c1cncc(CNc2ncnc3ccc(-c4ccoc4)cc23)c1`, the activation is inactive: -14.5%.
In the case of `CC(C)(C)CC(C)(C)c1ccc(O)c(Cc2ccc(Cl)cc2Cl)c1` it was inactive: -11.9%.
On to `COc1cc([C@@H]2Oc3cc([C@H]4Oc5cc(O)cc(O)c5C(=O)[C@H]4O)ccc3O[C@H]2CO)ccc1O`, for which the activation is inactive: -23.5%.
The figure for `COC(=O)C1CCCCN1Cc1ccc2c(c1)CN(Cc1cc(OC)c3c(c1)OCO3)CCO2` (stereo not drawn) is inactive: -13%; for `CCNc1ncc2nc(C)c(=O)n(CCC#N)c2n1` it is inactive: -25%.
The figure for `CC1c2ccccc2CN1CC1=NCCN1` (stereo not drawn) is inactive: 6.43%; for `CCCCCCCCCCCCCCC(F)C(=O)O` (stereo not drawn) it is inactive: -11.2%; for `O=c1c2ccccc2oc2cc(O)c(C3COCC(CO)C(O)C(O)C3O)c(O)c12` (stereo not drawn) it is inactive: -27.8%.
In the case of `OC(CCCN1CCCCC1)(c1ccccc1)c1ccccc1` it was inactive: -11%; in that of `CCN(CC)CCOC(=O)C(c1ccccc1)c1ccccc1`, inactive: -7.87%; in that of `CC(C)c1ccc2c(c1)CC[C@@H]1[C@@](C)(CN)CCC[C@]21C`, inactive: -14.1%.
On to `CC(C)c1c(C(=O)NCC2(N3CCCCC3)CCCC2)cnn1-c1nccc(-c2ccco2)n1`, for which the activation is inactive: 4.29%.
`Cc1cc2nc(N3CCC(NC(C)c4nc(-c5ccccn5)no4)CC3)nc(C)c2cc1C` (stereo not drawn): the activation was inactive: -5.38%.
As to `CN(Cc1ccco1)c1nc(-c2cccnc2)nc2ccccc12`, the activation was inactive: -0.195%.
Regarding `Nc1nc2c([nH]c(=O)n2C2OC(CO)C(O)C2O)c(=O)[nH]1` (stereo not drawn), the activation is inactive: 0.207%.
For the compound `CCOC(=O)c1ccc(N)cc1`, the activation is inactive: -7.85% and inactive: -1.2%.
In the case of `Cc1ccc2c(C)ccnc2c1` it was inactive: -12%.
Consider `CCC1(C2CCN(C(=O)c3ccccc3Cl)CC2)NC(=O)N(CCc2scnc2C)C1=O` (stereo not drawn), for which the activation is inactive: -2.29%.
In the case of `CC[N+](CC)(CC)CC(=O)Nc1c(C)cccc1C` it was inactive: -6.22% [middle of 4 runs]; in that of `COc1ccc2[nH]cc(CCNc3cc(-c4c(C)noc4C)ncn3)c2c1`, inactive: -7.83%.
Turning to `COc1ncc2ncc(=O)n(Cc3cccs3)c2n1`, the activation is inactive: -7.46%.
On to `CC(O)(COc1ccccc1)c1ccc2c(c1)CN(Cc1cn[nH]c1-c1ccc(F)cc1)CCO2` (stereo not drawn), for which the activation is inactive: -10.5%.
The figure for `Cc1ccc(C(=O)N(Cc2cc3cccc(C)c3nc2N2CCC(O)CC2)C2CC2)cc1` is inactive: 10.8%; for `COC(=O)C1CCN(Cc2ccc3c(c2)CN(C(=O)C2Cc4ccccc4O2)CCO3)CC1` (stereo not drawn) it is inactive: -18.6%; for `COC(=O)N1c2ccccc2C23[C@@H]4CN5CCC[C@]6(CCC12C(O)(C6)C4=O)[C@H]53` it is inactive: -15%.
On to `COc1ccc(CN2CCN(C(C)=O)CC2)cc1OC1CCN(C(=O)c2ccc3ccccc3n2)CC1`, for which the activation was inactive: -0.653%.
In the case of `CCCC(CCC)C(=O)OC1C[C@H]2CC[C@@H](C1)[N+]2(C)C` (stereo partly drawn) it was inactive: -7.11% and inactive: -2.89%; in that of `CC(N)=NCCC[C@H](N)C(=O)O`, inactive: -2.7%.
In the case of `Cc1noc(C)c1C(=O)N1CCC2(CCCN(C(=O)Nc3ccccc3)C2)CC1`, the activation was inactive: -16.4%.
The figure for `CNC(=O)[C@H]1O[C@H](n2cnc3c(NCc4cccc(I)c4)nc(Cl)nc32)[C@@H](O)[C@@H]1O` is inactive: -24.9%; for `COc1ccc(CN([C@H](C)CO)S(=O)(=O)N(Cc2ccccc2)[C@H](CO)C(C)C)cc1` it is inactive: -34.4%.
In the case of `Cc1ccc(C(=O)C[n+]2cccc3cccc(O)c32)cc1` it was inactive: -30%; in that of `Cc1ncc2c(c1CNC(=O)/C=C/c1cccs1)CCN(C(=O)c1c(C)noc1C)C2`, inactive: -12.1%.
In the case of `CCOC(=O)/C=C1\CN(Cc2cc(OC)c(OC)c(OC)c2)S(=O)(=O)c2ccc(C(F)(F)F)cc21`, the activation was inactive: -39%.
The figure for `Cc1oc(-c2ccccc2NS(C)(=O)=O)nc1CN(C)Cc1ccc(Cl)cc1` is inactive: -2.96%.
The figure for `C[C@H]1CC[C@@H]2N(C1)C[C@H]1[C@@H]3C[C@H]4[C@@H](C/C(=N\O)[C@H]5C[C@@H](O)CC[C@@]54C)[C@@H]3CC[C@H]1[C@]2(C)O` is inactive: -15.3%; for `O=C(Nc1cc(C(=O)Nc2ccc(S(=O)(=O)O)cc2S(=O)(=O)O)cc(C(=O)Nc2ccc(S(=O)(=O)O)cc2S(=O)(=O)O)c1)Nc1cc(C(=O)Nc2ccc(S(=O)(=O)O)cc2S(=O)(=O)O)cc(C(=O)Nc2ccc(S(=O)(=O)O)cc2S(=O)(=O)O)c1` it is inactive: 14.4%.
In the case of `COc1cccc(-c2nc(NC3CCNCC3)c3ccccc3n2)c1`, the activation is inactive: -15%.
In the case of `COc1cc(-c2ccc(=O)[nH]n2)ccc1OC(F)F` it was inactive: -7.78% and inactive: 6.65% and inactive: -7.81%; in that of `COc1ccc(C(=O)NCc2nnc(SC)n2-c2ccccc2C)c(OC)c1OC`, inactive: -10.3%.
Regarding `C(=C\c1ccncc1)/c1ccccc1`, the activation is inactive: -2.08% and inactive: -21.7%.
In the case of `N[C@H](CS)C(=O)O` it was inactive: 0.245%.
The figure for `CN(C)C(=O)c1ccc(-c2cncnc2NCc2cccnc2)cc1` is inactive: -2.25%.
In the case of `CS(=O)(=O)N1CCC[C@@]2(CCN(c3ccncc3)C2)C1` it was inactive: -0.943%.
With `COc1cccc(CN2c3ccc(Br)cc3C(=O)CS2(=O)=O)c1`, the activation is inactive: -1.56%.
Consider `CN(C)c1ccc(/C=[N+]2\C(=O)CC(=O)NC2=O)cc1`, for which the activation was inactive: -2.31%.
The figure for `COc1ncc2nc(-c3ccccc3)c(=O)n(CCC#N)c2n1` is inactive: 0.0839%.
`CCCCC1(COC(=O)CCC(=O)O)C(=O)N(c2ccccc2)N(c2ccccc2)C1=O`: the activation was inactive: -13.7% and inactive: -12%.
On to `O=c1c(-c2cccc(Cl)c2)nc2cncnc2n1Cc1ccc(F)cc1`, for which the activation is inactive: -6.43%.
Take `CC(C)c1ccc(Cn2ccc3c4c(N)nc(NC5CC5)nc4ccc32)cc1`: the activation was inactive: -30.5%.
Take `COc1ccccc1CN1CCC2(CC1)CCN(S(=O)(=O)c1ccccc1)CC2`: the activation is inactive: -6.3%.
